The subject of one assay is HSkMC. Description: cytotoxicity call (relative viability < 0.9). The note with it: 10 µM.
Another assay deals with HepG2. Description: cytotoxicity call (relative viability < 0.9). The note with it: 10 µM.
The subject of another assay is S. aureus RN4220. Description: growth inhibition call (relative growth <= 0.2). The note with it: 50 µM.

Some of the results follow.

Consider `CC(C)NC(=O)Nc1ccc2c(c1)CC(=O)N([C@H](C)CO)C[C@@H](C)[C@H](CN(C)S(=O)(=O)c1cccs1)O2`, for which the cytotoxicity call in the assay with HSkMC and in the assay on HepG2 was “inactive” throughout. Also, the growth inhibition call in the assay on S. aureus RN4220 is “inactive”.

Regarding `C[C@@H]1CN([C@@H](C)CO)C(=O)Cc2cc(NC(=O)Cc3ccccc3)ccc2O[C@@H]1CN(C)S(=O)(=O)c1cn(C)cn1`, the cytotoxicity call with HSkMC and in the assay on HepG2 was “inactive” throughout. For the same molecule, in the assay with S. aureus RN4220, the growth inhibition call is “inactive”.

As for `O=S1(=O)C[C@H](NCc2cccnc2)[C@@H](O)C1`, the cytotoxicity call with HSkMC and with HepG2 was “inactive” each time. Besides, the growth inhibition call with S. aureus RN4220 was “inactive”.

As for `C[C@H]1CN([C@@H](C)CO)C(=O)c2cccc(NS(=O)(=O)c3ccccc3)c2O[C@H]1CN(C)Cc1ccncc1`, the cytotoxicity call in the assay on HSkMC and with HepG2 was “inactive” in each case. In addition, the growth inhibition call in the assay with S. aureus RN4220 was “inactive”.

Consider `CCOC(=O)c1sc(=NN)[nH]c1C`, for which the cytotoxicity call in the assay on HSkMC and in the assay on HepG2 was “inactive” each time. In addition, the growth inhibition call in the assay on S. aureus RN4220 was “inactive”.

On to `C[C@@H]1CN([C@H](C)CO)C(=O)c2cc(NC(=O)Nc3ccccc3)ccc2O[C@@H](C)CCCCO[C@@H]1CN(C)Cc1ccc(Cl)c(Cl)c1`, for which the cytotoxicity call in the assay with HSkMC is “inactive”. In addition, the cytotoxicity call in the assay on HepG2 is “active”. The growth inhibition call in the assay with S. aureus RN4220 is “inactive”.

Take `COc1ccc(NC(=O)Nc2ccc3c(c2)[C@H]2C[C@H](CC(=O)NCC(F)(F)F)O[C@@H](CO)[C@H]2O3)cc1`: the cytotoxicity call in the assay on HSkMC and in the assay with HepG2 was “inactive” each time. For the same molecule, the growth inhibition call with S. aureus RN4220 is “inactive”.

Turning to `Nc1ccc(C(=O)N2CCOCC2)cc1`, the cytotoxicity call in the assay with HSkMC and in the assay on HepG2 was “inactive” each time. For the same molecule, the growth inhibition call in the assay on S. aureus RN4220 was “inactive”.

Regarding `C[C@@H]1CN([C@@H](C)CO)C(=O)c2cccc(NS(=O)(=O)c3ccccc3)c2O[C@H]1CN(C)S(=O)(=O)c1ccc(F)cc1`, the cytotoxicity call in the assay with HSkMC and with HepG2 was “inactive” in each case. Also, in the assay with S. aureus RN4220, the growth inhibition call was “inactive”.

As for `C=CCOC(=O)[C@@H]1[C@H]2C(=O)O[C@H](c3ccccc3)[C@H](c3ccccc3)N2[C@H](c2ccc(OCCOC(=O)[C@H]3C[C@H]4C(=O)N[C@@H](CC(C)C)C(=O)N4[C@H]3c3cccc(OCCO)c3)cc2)[C@@]12C(=O)Nc1ccc(I)cc12`, the cytotoxicity call in the assay on HSkMC (human skeletal muscle cells) and in the assay with HepG2 was “inactive” in each case. In the assay with S. aureus RN4220, the growth inhibition call is “inactive”.

The record behind these values is the antibiotic and cytotoxicity screens of Wong et al. (2023).
